The results in this text go back to the supplement of paper PMC3334620.

The full ranking holds about 33,000 sequences; the median of “E-score (-0.5 to 0.5)” is about -0.016, and the highest 2% start at about 0.32. Some of the results follow.

The test has as its target T1, Stp1 (UniProt B3LFK1).
T1 sequence: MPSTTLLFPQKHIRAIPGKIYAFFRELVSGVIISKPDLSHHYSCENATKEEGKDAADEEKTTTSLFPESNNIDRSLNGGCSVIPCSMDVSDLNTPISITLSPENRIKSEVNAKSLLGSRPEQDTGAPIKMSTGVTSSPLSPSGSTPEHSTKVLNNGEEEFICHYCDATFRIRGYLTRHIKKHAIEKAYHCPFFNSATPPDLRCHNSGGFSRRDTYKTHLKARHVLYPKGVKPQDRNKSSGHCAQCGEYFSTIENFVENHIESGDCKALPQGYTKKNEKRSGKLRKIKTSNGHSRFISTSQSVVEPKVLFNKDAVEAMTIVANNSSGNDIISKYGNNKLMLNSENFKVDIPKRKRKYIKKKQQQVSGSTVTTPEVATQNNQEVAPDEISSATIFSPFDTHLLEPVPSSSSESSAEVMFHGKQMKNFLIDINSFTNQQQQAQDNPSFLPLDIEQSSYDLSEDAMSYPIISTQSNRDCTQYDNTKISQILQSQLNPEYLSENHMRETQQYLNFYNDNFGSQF
Nature of the test: PBM E-score (8-mer binding enrichment) (E-score (-0.5 to 0.5)); higher = stronger / more preferred TF binding; most listed sequences are background and not binding sites. The settings on record: protein concentration: 200 nM; construct: GST-full length. An outline of the steps: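 Yeast transcription factors, full-length or as DNA-binding domains, were expressed with a GST tag using PURExpress in vitro transcription/translation. At about 100-200 nM they were applied to universal all-10-mer Agilent arrays, double-stranded by primer extension on fresh or once-stripped slides. Fluorescent anti-GST detected bound protein, and masliner normalised the scans. E-scores for ungapped eight-base words, pooled with reverse complements, came from the Universal PBM Analysis Suite.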
Consider AAAATCGA, for which the “PBM E-score” value came out at 0.167.

As for ATACTATA, the “PBM E-score” value turned out to be 0.00844.

As for AAAATCCG, the “PBM E-score” value is 0.0996.

In the case of CAACTCAA, the “PBM E-score” value came out at 0.125.

Regarding CGATGCGC, the “PBM E-score” value is -0.0803.

In the case of CGTAAAAG, the “PBM E-score” value is 0.2.

On to AACGATAT, for which the “PBM E-score” value amounted to 0.234.

CTGAGGCA: the “PBM E-score” value worked out at 0.192.

Regarding CTTAAGAC, the “PBM E-score” value was 0.0928.

For the sequence ATGCGCTA, the “PBM E-score” value is -0.239.

In the case of CCGCGTAA, the “PBM E-score” value is 0.244.

Consider TTACGGAA, for which the “PBM E-score” value was 0.00983.

Turning to CGATCTTA, the “PBM E-score” value was 0.0388.

With CGAAGAGC, the “PBM E-score” value worked out at 0.0374.

As for ACGGTCCT, the “PBM E-score” value is -0.219.

For the sequence CATTGAGC, the “PBM E-score” value was 0.0677.

TAGTCAAA: the “PBM E-score” value is 0.012.

For the sequence CGGGGACA, the “PBM E-score” value was -0.261.

Consider GTTAGTCA, for which the “PBM E-score” value was -0.0176.

Regarding ACTGCACC, the “PBM E-score” value is -0.0705.

On to CACGCAAG, for which the “PBM E-score” value is 0.095.

Regarding ATAGCAAG, the “PBM E-score” value is -0.0247.

As for CACTAAGC, the “PBM E-score” value is -0.0386.

As for AGCTTGAT, the “PBM E-score” value was -0.128.

Take GCGTCAAC: the “PBM E-score” value was determined as 0.0191.

As for ATGATGGG, the “PBM E-score” value was -0.161.

ACGAGACG: the “PBM E-score” value was -0.0335.

For GTTTGCCA, the “PBM E-score” value was 0.183.

With AAACCCAT, the “PBM E-score” value came out at 0.0093.

For the sequence AGTGCCGG, the “PBM E-score” value is 0.211.

On to AACCGTGT, for which the “PBM E-score” value was determined as 0.0639.

As for CTGACTGA, the “PBM E-score” value was -0.164.

AATGGACT: the “PBM E-score” value was -0.2.

For GCTCTATA, the “PBM E-score” value was -0.0525.

For the sequence AGTCCTGA, the “PBM E-score” value was -0.0264.

As to CGATCTCC, the “PBM E-score” value was -0.0732.

For the sequence TTTAGAAA, the “PBM E-score” value was determined as 0.13.

For CGGTTTAC, the “PBM E-score” value was found to be 0.0169.

Consider CAGCTAGC, for which the “PBM E-score” value is -0.151.

For the sequence CGCGCGAG, the “PBM E-score” value was 0.239.

For AGAACAAA, the “PBM E-score” value was 0.246.

For AATTATAT, the “PBM E-score” value stood at 0.179.

For AAAGTGGG, the “PBM E-score” value was -0.235.

GATACATA: the “PBM E-score” value was found to be 0.146.

For CGCATGTC, the “PBM E-score” value was determined as 0.0172.

On to GACCTGAA, for which the “PBM E-score” value is -0.148.

Consider CTAATCTC, for which the “PBM E-score” value stood at 0.0259.

For TCAGCTAA, the “PBM E-score” value is -0.144.

As for AATGGGAT, the “PBM E-score” value is -0.176.

As to CACGAGAG, the “PBM E-score” value is -0.227.

For the sequence AAACGTTA, the “PBM E-score” value is -0.04.

As for CCAAGGGC, the “PBM E-score” value is -0.234.

On to ACACCAGA, for which the “PBM E-score” value was determined as 0.00655.

For the sequence CGTAACCA, the “PBM E-score” value is -0.116.

Consider CCTTCCCC, for which the “PBM E-score” value was -0.163.

With CGGAACCG, the “PBM E-score” value was 0.00073.

With GCACAGCC, the “PBM E-score” value was found to be 0.0901.

For the sequence ACCCGATG, the “PBM E-score” value was -0.0553.

In the case of TAAAAACA, the “PBM E-score” value was found to be 0.163.

Regarding CTTCAGCA, the “PBM E-score” value is -0.196.

In the case of AAGACTAG, the “PBM E-score” value is -0.227.

Consider GTCTTGAA, for which the “PBM E-score” value worked out at 0.0442.

For AAGCCCGT, the “PBM E-score” value is -0.208.

On to GCCGACAA, for which the “PBM E-score” value was 0.0311.

ATCTTTGA: the “PBM E-score” value is -0.0322.

Regarding ACGTCTCC, the “PBM E-score” value was -0.193.

As to GAGAAATC, the “PBM E-score” value came out at 0.119.

GACTCCGA: the “PBM E-score” value was -0.173.

For AATGGGAG, the “PBM E-score” value was -0.204.

For the sequence ACGTTGTG, the “PBM E-score” value amounted to 0.0908.

In the case of CGGCGACA, the “PBM E-score” value came out at 0.369.

For TGGGTAAA, the “PBM E-score” value is -0.17.

In the case of CCAAACGC, the “PBM E-score” value worked out at 0.0617.

Take GGCATATA: the “PBM E-score” value was 0.305.

Turning to ACCGCTGA, the “PBM E-score” value is -0.0664.

In the case of AATAAACA, the “PBM E-score” value is 0.162.

As to AGGTGGGA, the “PBM E-score” value is -0.234.

In the case of GATCATGC, the “PBM E-score” value is -0.223.

For the sequence ATTCTATC, the “PBM E-score” value stood at 0.102.

With AGGACACC, the “PBM E-score” value is -0.0925.

As to AATAGCAG, the “PBM E-score” value was -0.235.

For AATCGGTG, the “PBM E-score” value was -0.0715.

ACCTCGAC: the “PBM E-score” value was -0.0257.

Turning to CTAGGGTA, the “PBM E-score” value is -0.255.

With GTTCCAAA, the “PBM E-score” value came out at 0.108.

With AAGTCAGT, the “PBM E-score” value amounted to 0.105.

Regarding AGTAGATA, the “PBM E-score” value is 0.233.

For AGTAATGA, the “PBM E-score” value came to 0.0354.

CGCGCCTC: the “PBM E-score” value is 0.377.

For GCCCGACC, the “PBM E-score” value is -0.312.

As for AAGGCAAG, the “PBM E-score” value was 0.0628.

With AGGAAGTC, the “PBM E-score” value is -0.19.

On to ATCTGTGC, for which the “PBM E-score” value was 0.171.

On to ACAGCGCG, for which the “PBM E-score” value is 0.181.

As for CGAGGAGA, the “PBM E-score” value was -0.162.

For ACATTGAT, the “PBM E-score” value is 0.17.

For the sequence AGCCCACC, the “PBM E-score” value was -0.142.

For the sequence GGGAAAAA, the “PBM E-score” value stood at 0.0158.

Take AGTTGCCC: the “PBM E-score” value is -0.00682.

Regarding GCATTTAC, the “PBM E-score” value is 0.0437.

For the sequence AATAGTTG, the “PBM E-score” value came out at 0.0784.

Regarding CCCGATCC, the “PBM E-score” value is -0.245.

As for CGTCACGC, the “PBM E-score” value came to 0.0582.

As for AAAACAAA, the “PBM E-score” value was determined as 0.128.

Take AAGCACGA: the “PBM E-score” value turned out to be 0.0182.

CACGCCAC: the “PBM E-score” value is 0.0872.

Take CAGAGGTC: the “PBM E-score” value was -0.0994.

Regarding GAGGGCGA, the “PBM E-score” value was -0.232.

On to CTGATTCC, for which the “PBM E-score” value was -0.0956.
